Measurements as given in the supplement of paper PMC8728848.
The other results are listed elsewhere or left out.

Key:
Assay in all cases: glycan array binding signal (z-score within array); higher = stronger binding
Conditions in all cases: glycan notation: IUPAC condensed, linker removed
[1] = target: Neu5Ac(a2-3)Gal(b1-3)GlcNAc(b1-3)Gal(b1-4)GlcNAc
In short: (§1)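 Glycan array data came from 3228 arrays in the Consortium for Functional Glycomics database, and only arrays with an available protein sequence were kept. Glycan names were put into IUPAC-condensed notation, and columns mapping to the same glycan were averaged. The binding signal is a within-array Z-score, averaged across arrays of one protein sequence run at different concentrations or buffers and across linkers. A negative Z-score can be read as non-binding.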

[2] = target: Neu5Ac(a2-3)Gal(b1-3)GlcNAc(b1-3)GalNAc
In short: as §1

[3] = target: Neu5Ac(a2-3)Gal(b1-3)GlcNAc(b1-4)Gal(b1-4)Glc
In short: as §1

[4] = target: Neu5Ac(a2-3)Gal(b1-3)GlcNAc(b1-6)GalNAc
In short: as §1

[5] = target: Neu5Ac(a2-3)Gal(b1-3)GlcNAc6S
In short: as §1

[6] = target: Neu5Ac(a2-3)Gal(b1-3)[Fuc(a1-4)]GlcNAc
In short: as §1

[7] = target: Neu5Ac(a2-3)Gal(b1-3)[Fuc(a1-4)]GlcNAc(b1-3)Gal(b1-3)[Fuc(a1-4)]GlcNAc
In short: as §1

[8] = target: Neu5Ac(a2-3)Gal(b1-3)[Fuc(a1-4)]GlcNAc(b1-3)Gal(b1-4)[Fuc(a1-3)]GlcNAc
In short: as §1

[9] = target: Neu5Ac(a2-3)Gal(b1-3)[GlcNAc(b1-6)]GalNAc
In short: as §1

[10] = target: Neu5Ac(a2-3)Gal(b1-3)[Neu5Ac(a2-3)Gal(b1-4)]GlcNAc
In short: as §1

[11] = target: Neu5Ac(a2-3)Gal(b1-3)[Neu5Ac(a2-6)]GalNAc
In short: as §1

[12] = target: Neu5Ac(a2-3)Gal(b1-3)[Neu5Ac(a2-6)]GlcNAc(b1-3)[Fuc(a1-3)[Gal(b1-4)]GlcNAc(b1-6)]Gal(b1-4)Glc
In short: as §1

[13] = target: Neu5Ac(a2-3)Gal(b1-3)]Neu5Ac(a2-3)Gal(b1-4)]GlcNAc
In short: as §1

Neu5Ac(a2-3)Gal(b1-4)Glc = target: Neu5Ac(a2-3)Gal(b1-4)Glc
In short: as §1

[14] = target: Neu5Ac(a2-3)Gal(b1-4)GlcNAc
In short: as §1

[15] = target: Neu5Ac(a2-3)Gal(b1-4)GlcNAc(b1-2)Man
In short: as §1

[16] = target: Neu5Ac(a2-3)Gal(b1-4)GlcNAc(b1-2)Man(a1-3)[GlcNAc(b1-4)][Neu5Ac(a2-3)Gal(b1-4)GlcNAc(b1-2)Man(a1-6)]Man(b1-4)GlcNAc(b1-4)GlcNAc
In short: as §1

[17] = target: Neu5Ac(a2-3)Gal(b1-4)GlcNAc(b1-2)Man(a1-3)[Neu5Ac(a2-3)Gal(b1-4)GlcNAc(b1-2)Man(a1-6)]Man(b1-4)GlcNAc(b1-4)GlcNAc
In short: as §1

[18] = target: Neu5Ac(a2-3)Gal(b1-4)GlcNAc(b1-2)Man(a1-3)[Neu5Ac(a2-3)Gal(b1-4)GlcNAc(b1-2)Man(a1-6)]Man(b1-4)GlcNAc(b1-4)[Fuc(a1-6)]GlcNAc
In short: as §1

[19] = target: Neu5Ac(a2-3)Gal(b1-4)GlcNAc(b1-2)Man(a1-3)[Neu5Ac(a2-6)Gal(b1-4)GlcNAc(b1-2)Man(a1-6)]Man(b1-4)GlcNAc(b1-4)GlcNAc
In short: as §1

[20] = target: Neu5Ac(a2-3)Gal(b1-4)GlcNAc(b1-2)[Neu5Ac(a2-3)Gal(b1-4)GlcNAc(b1-4)]Man(a1-3)[GlcNAc(b1-4)][Neu5Ac(a2-3)Gal(b1-4)GlcNAc(b1-2)[Neu5Ac(a2-3)Gal(b1-4)GlcNAc(b1-6)]Man(a1-6)]Man(b1-4)GlcNAc(b1-4)GlcNAc
In short: as §1

[21] = target: Neu5Ac(a2-3)Gal(b1-4)GlcNAc(b1-2)[Neu5Ac(a2-3)Gal(b1-4)GlcNAc(b1-4)]Man(a1-3)[GlcNAc(b1-4)][Neu5Ac(a2-3)Gal(b1-4)GlcNAc(b1-4)Man(a1-6)]Man(b1-4)GlcNAc(b1-4)GlcNAc
In short: as §1

[22] = target: Neu5Ac(a2-3)Gal(b1-4)GlcNAc(b1-2)[Neu5Ac(a2-3)Gal(b1-4)GlcNAc(b1-6)]Man(a1-6)[Neu5Ac(a2-3)Gal(b1-4)GlcNAc(b1-2)Man(a1-3)]Man(b1-4)GlcNAc(b1-4)GlcNAc
In short: as §1

[23] = target: Neu5Ac(a2-3)Gal(b1-4)GlcNAc(b1-2)[Neu5Ac(a2-3)Gal(b1-4)GlcNAc(b1-6)]Man(a1-6)[Neu5Ac(a2-3)Gal(b1-4)GlcNAc(b1-2)Man(a1-3)][GlcNAc(b1-4)]Man(b1-4)GlcNAc(b1-4)GlcNAc
In short: as §1

[24] = target: Neu5Ac(a2-3)Gal(b1-4)GlcNAc(b1-3)Gal
In short: as §1

[25] = target: Neu5Ac(a2-3)Gal(b1-4)GlcNAc(b1-3)Gal(b1-3)GlcNAc
In short: as §1

[26] = target: Neu5Ac(a2-3)Gal(b1-4)GlcNAc(b1-3)Gal(b1-4)GlcNAc
In short: as §1

[27] = target: Neu5Ac(a2-3)Gal(b1-4)GlcNAc(b1-3)Gal(b1-4)GlcNAc(b1-2)Man(a1-3)[Neu5Ac(a2-3)Gal(b1-4)GlcNAc(b1-3)Gal(b1-4)GlcNAc(b1-2)Man(a1-6)]Man(b1-4)GlcNAc(b1-4)GlcNAc
In short: as §1

[28] = target: Neu5Ac(a2-3)Gal(b1-4)GlcNAc(b1-3)Gal(b1-4)GlcNAc(b1-3)Gal(b1-4)GlcNAc
In short: as §1

[29] = target: Neu5Ac(a2-3)Gal(b1-4)GlcNAc(b1-3)Gal(b1-4)GlcNAc(b1-3)Gal(b1-4)GlcNAc(b1-2)Man(a1-3)[Neu5Ac(a2-3)Gal(b1-4)GlcNAc(b1-3)Gal(b1-4)GlcNAc(b1-3)Gal(b1-4)GlcNAc(b1-2)Man(a1-6)]GalNAc
In short: as §1

[30] = target: Neu5Ac(a2-3)Gal(b1-4)GlcNAc(b1-3)Gal(b1-4)GlcNAc(b1-3)GalNAc
In short: as §1

[31] = target: Neu5Ac(a2-3)Gal(b1-4)GlcNAc(b1-3)Gal(b1-4)GlcNAc(b1-3)[Neu5Ac(a2-3)Gal(b1-4)GlcNAc(b1-3)Gal(b1-4)GlcNAc(b1-6)]GalNAc
In short: as §1

[32] = target: Neu5Ac(a2-3)Gal(b1-4)GlcNAc(b1-3)Gal(b1-4)GlcNAc(b1-6)[Gal(b1-3)]GalNAc
In short: as §1

[33] = target: Neu5Ac(a2-3)Gal(b1-4)GlcNAc(b1-3)Gal(b1-4)[Fuc(a1-3)]GlcNAc
In short: as §1

[34] = target: Neu5Ac(a2-3)Gal(b1-4)GlcNAc(b1-3)GalNAc
In short: as §1

[35] = target: Neu5Ac(a2-3)Gal(b1-4)GlcNAc(b1-3)[Neu5Ac(a2-3)Gal(b1-4)GlcNAc(b1-6)]GalNAc
In short: as §1

[36] = target: Neu5Ac(a2-3)Gal(b1-4)GlcNAc(b1-6)GalNAc
In short: as §1

[37] = target: Neu5Ac(a2-3)Gal(b1-4)GlcNAc(b1-6)[Gal(b1-3)]GalNAc
In short: as §1

[38] = target: Neu5Ac(a2-3)Gal(b1-4)GlcNAc(b1-6)[Neu5Ac(a2-3)Gal(b1-3)]GalNAc
In short: as §1

[39] = target: Neu5Ac(a2-3)Gal(b1-4)GlcNAc6S
In short: as §1

[40] = target: Neu5Ac(a2-3)Gal(b1-4)[Fuc(a1-3)]GlcNAc
In short: as §1

[41] = target: Neu5Ac(a2-3)Gal(b1-4)[Fuc(a1-3)]GlcNAc(b1-2)Man
In short: as §1

[42] = target: Neu5Ac(a2-3)Gal(b1-4)[Fuc(a1-3)]GlcNAc(b1-3)Gal
In short: as §1

[43] = target: Neu5Ac(a2-3)Gal(b1-4)[Fuc(a1-3)]GlcNAc(b1-3)Gal(b1-4)GlcNAc
In short: as §1

[44] = target: Neu5Ac(a2-3)Gal(b1-4)[Fuc(a1-3)]GlcNAc(b1-3)Gal(b1-4)[Fuc(a1-3)]GlcNAc(b1-3)Gal(b1-4)[Fuc(a1-3)]GlcNAc
In short: as §1

B1: UDA (Urtica dioica), P11218 (protein)
chain: MMMRFLSAVVIMSSAMAVGLVSAQRCGSQGGGGTCPALWCCSIWGWCGDSEPYCGRTCENKCWSGERSDHRCGAAVGNPPCGQDRCCSVHGWCGGGNDYCSGSKCQYRCSSSVRGPRVALSGNSTANSIGNVVVTEPLFDQMFSHRKDCPSQGFYSYHSFLVAAESFPAFGTIGDVATRKREVAAFLAHISQATSGERSDVENPHAWGLCHINTTTVTENDFCTSSDWPCAAGKKYSPRGPIQLTHNFNYGLAGQAIGEDLIQNPDLVEKDPIISFKTALWFWMSQHDNKPSCHDIVLNANSAANRIPNKGVIGNIISRAFGHDDFAVRSSSIGFYKRYCDMLGVSYGHDLKYWFDNTPSSEFQRIQMRVAA
[1]
  glycan array binding signal (z-score): -0.15
[2]
  glycan array binding signal (z-score): -0.172
[3]
  glycan array binding signal (z-score): -0.174
[4]
  glycan array binding signal (z-score): -0.174
[5]
  glycan array binding signal (z-score): -0.152
[6]
  glycan array binding signal (z-score): -0.188
[7]
  glycan array binding signal (z-score): -0.166
[8]
  glycan array binding signal (z-score): -0.176
[9]
  glycan array binding signal (z-score): -0.176
[10]
  glycan array binding signal (z-score): -0.25
[11]
  glycan array binding signal (z-score): -0.181
[12]
  glycan array binding signal (z-score): -0.177
[13]
  glycan array binding signal (z-score): -0.174
Neu5Ac(a2-3)Gal(b1-4)Glc
  glycan array binding signal (z-score): -0.184
[14]
  glycan array binding signal (z-score): 0.435
[15]
  glycan array binding signal (z-score): -0.173
[16]
  glycan array binding signal (z-score): -0.174
[17]
  glycan array binding signal (z-score): -0.168
[18]
  glycan array binding signal (z-score): -0.169
[19]
  glycan array binding signal (z-score): -0.175
[20]
  glycan array binding signal (z-score): -0.177
[21]
  glycan array binding signal (z-score): -0.18
[22]
  glycan array binding signal (z-score): -0.172
[23]
  glycan array binding signal (z-score): -0.18
[24]
  glycan array binding signal (z-score): -0.182
[25]
  glycan array binding signal (z-score): -0.178
[26]
  glycan array binding signal (z-score): -0.07
[27]
  glycan array binding signal (z-score): -0.109
[28]
  glycan array binding signal (z-score): 0.74
[29]
  glycan array binding signal (z-score): -0.024
[30]
  glycan array binding signal (z-score): -0.173
[31]
  glycan array binding signal (z-score): -0.161
[32]
  glycan array binding signal (z-score): -0.163
[33]
  glycan array binding signal (z-score): -0.178
[34]
  glycan array binding signal (z-score): -0.179
[35]
  glycan array binding signal (z-score): -0.177
[36]
  glycan array binding signal (z-score): -0.179
[37]
  glycan array binding signal (z-score): -0.172
[38]
  glycan array binding signal (z-score): -0.172
[39]
  glycan array binding signal (z-score): 0.814
[40]
  glycan array binding signal (z-score): -0.19
[41]
  glycan array binding signal (z-score): -0.182
[42]
  glycan array binding signal (z-score): -0.189
[43]
  glycan array binding signal (z-score): -0.171
[44]
  glycan array binding signal (z-score): -0.174
